# From PubChem BioAssay AID588453 (National Center for Advancing Translational Sciences (NCATS), 2011)
# The whole screen tested about 390,000 compounds, of which about 4,000 (1%) were called active. Inconclusive means that the source gave no clear call. Such entries were picked first, then a sample of the others. The call rests on the fitted dose curve; in most records, active means well fitted inhibition curve with a large enough effect; inconclusive means small, poorly fitted or top-dose-only effect; inactive means no such curve, though single readings can be large or run the other way. A potency beside an inconclusive call is a rough fit, not a confirmed value.
# Target: Thioredoxin reductase 1, cytoplasmic (Rattus norvegicus) (UniProt O89049)
# Sequence of UniProt O89049 (O89049 whole entry, looked up): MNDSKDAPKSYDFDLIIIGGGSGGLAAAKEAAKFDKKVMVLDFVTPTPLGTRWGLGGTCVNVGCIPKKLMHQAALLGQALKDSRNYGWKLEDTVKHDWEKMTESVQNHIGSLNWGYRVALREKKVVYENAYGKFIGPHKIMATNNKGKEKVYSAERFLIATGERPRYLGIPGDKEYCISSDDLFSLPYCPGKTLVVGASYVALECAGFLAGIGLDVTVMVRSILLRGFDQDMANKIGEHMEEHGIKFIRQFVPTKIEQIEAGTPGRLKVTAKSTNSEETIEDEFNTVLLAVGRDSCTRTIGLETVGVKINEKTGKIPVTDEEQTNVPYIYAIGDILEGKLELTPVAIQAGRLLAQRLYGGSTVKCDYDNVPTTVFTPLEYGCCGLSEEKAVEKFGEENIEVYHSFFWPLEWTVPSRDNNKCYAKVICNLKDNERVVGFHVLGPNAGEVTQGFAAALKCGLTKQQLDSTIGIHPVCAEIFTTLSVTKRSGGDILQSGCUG
# Assay: qHTS Assay for Inhibitors of Mammalian Selenoprotein Thioredoxin Reductase 1 (TrxR1): qHTS; further: nearly all actives have a fitted effect of over 65% in size
# Details: recombinant rTrxR1, NADPH fluorescence consumption, selenite substrate; series mostly up to 114 µM
# Summary of the method: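 Rat TrxR1 (90 nM in the dispensed reagent) was pre-reduced with 400 uM NADPH for 5 min at room temperature, then incubated with compound for 15 min. After 400 uM selenite was added, NADPH fluorescence (Ex 340/Em 450 nm) was followed for 8 min.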
# Potency means the concentration at half of the fitted maximal effect; tags describe the fitted curve by direction and shape.
row,Compound,Potency
1,OC[C@H]1O[C@@H](n2cnc3c(Nc4ccccc4)ncnc32)[C@H](O)[C@H]1O,inactive
2,COc1ccc(-n2c(Cc3cc(=O)[nH]c(=O)[nH]3)nnc2SCC(=O)N2CCCC2)cc1,"inconclusive: 8.91 µM [inhibitor, single point]"
3,CSc1ccc(C2Nc3cccc4cccc(c34)N2)cc1,"inconclusive: 89.1 µM [inhibitor, single point]"
4,Cc1ccc(-c2nc3ncccc3o2)cc1NC(=O)c1cccs1,"inconclusive: 39.8 µM [inhibitor, single point]"
5,O=C(Nc1ccc(F)cc1)Nc1sccc1-c1nc2ccccc2s1,"inconclusive: 22.4 µM [inhibitor, single point]"
6,Cc1n[nH]c(=S)n(NC(=O)CC(=O)Nn2c(=S)[nH]nc(C)c2=O)c1=O,inactive
7,O=c1ccn([C@@H]2O[C@H](CNCC3=Cc4cc(O)ccc4OC3)[C@@H](O)[C@H]2O)c(=O)[nH]1,"inconclusive: 100 µM [inhibitor, single point]"
8,COC(=O)COc1ccc(C(C2C(=O)CC(C)(C)CC2=O)C2C(=O)CC(C)(C)CC2=O)cc1,"inconclusive: 25.1 µM [inhibitor, partial curve]"
9,COc1cc([N+](=O)[O-])ccc1NC(=S)Nn1cnnc1,"inconclusive: 39.8 µM [inhibitor, partial curve]"
10,COCCNC(=O)Nc1ccc2nc(-c3ccco3)c(-c3ccco3)nc2c1,active: 3.16 µM
11,Cc1ccc2c(c1)c1c(c(=O)n(Cc3ccccc3)c(=O)n1Cc1ccccc1F)n2C,inactive
12,CCOC(=O)c1c(-c2ccco2)csc1NC(=O)COC(=O)c1cnccn1,"inconclusive: 50.1 µM [inhibitor, partial curve]"
13,CCN(CC)CCOC(=O)c1ccc(NC(=O)/C=C/c2cccs2)cc1,"inconclusive: 79.4 µM [inhibitor, single point]"
14,COc1cccc(-c2csc3ncnc(Sc4nnnn4C)c23)c1,inactive
15,O=C(CCNc1cc(Cl)cc(Cl)c1)c1cccs1,active: 28.2 µM
16,Nc1nc(Nc2ccccc2)nc(NCCO)c1[N+](=O)[O-],"inconclusive: 89.1 µM [inhibitor, single point]"
17,CC(=O)C1=C(C)NC(SCC(N)=O)=C(C#N)C1C (configuration not stated),inactive
18,CCN(CC)S(=O)(=O)c1ccc(N=Nc2c(C)[nH]n(C(N)=S)c2=O)cc1,"inconclusive: 7.08 µM [inhibitor, partial curve]"
19,COc1ncnc2sc3c(c12)CCCC3,"inconclusive: 25.1 µM [inhibitor, partial curve, poor fit]"
20,CS(=O)(=O)c1ccc2c(c1)sc1nc(=O)c(/C=C3/C=CC(=O)C(O)=C3)c(N)n12,"inconclusive: 50.1 µM [inhibitor, partial curve, poor fit]"
21,O=C(Nc1cc(-c2ccccc2)nn1C1CCCCC1)c1ccc(Cl)cc1,"inconclusive: 39.8 µM [inhibitor, partial curve, poor fit]"
22,Cc1ccc(NC(=O)Cn2nc(-c3ccco3)ccc2=O)cc1Cl,"inconclusive: 39.8 µM [inhibitor, partial curve]"
23,COC(=O)N/N=C/c1cn(Cc2ccc(F)cc2)c2ccccc12,"inconclusive: 79.4 µM [inhibitor, partial curve, poor fit]"

row,Compound,Potency
1,Cc1c(C(=O)N(Cc2ccc(Cl)cc2)C2CCS(=O)(=O)C2)oc2ccccc12 (configuration not stated),inactive
2,Cc1cccc(NC(=O)c2ccc(F)c(S(=O)(=O)NCc3ccco3)c2)c1,active: 79.4 µM
3,Cc1ccc(NC2=C(Cl)C(=O)OC2OC(=O)c2ccc(C)cc2)cc1 (configuration not stated),inactive
4,Cc1cc(Cl)ccc1C(=O)C1CCCN(C(=O)CN2CCOC2=O)C1 (configuration not stated),"inconclusive: 89.1 µM [inhibitor, single point]"
5,O=[N+]([O-])c1cc(Cl)cc(/C=N/NC(=S)Nc2cc(S(=O)(=O)N3CCOCC3)ccc2Cl)c1O,"inconclusive: 70.8 µM [inhibitor, single point]"
6,CCc1c(C)sc(NC(=S)N2CCN(CC)CC2)c1C(=O)OC,inactive
7,O=C(O)CCCn1c(=S)[nH]c2c(sc3ccc([N+](=O)[O-])cc32)c1=O,"inconclusive: 28.2 µM [inhibitor, partial curve, poor fit]"
8,CC(C)CN(C(=O)/C=C/c1nc2ccccc2s1)C1CCS(=O)(=O)C1 (configuration not stated),"inconclusive: 50.1 µM [inhibitor, partial curve, poor fit]"
9,Cc1nc(Cl)c(Cl)n1CCOc1ccccc1,"inconclusive: 5.62 µM [inhibitor, full curve, poor fit]"
10,Cc1ccc(S(=O)(=O)N2CCOC2C(Cl)(Cl)Cl)cc1 (configuration not stated),inactive
11,CC(=O)c1c(C)[nH]c(C(=O)COc2cc(C)ccc2C(C)C)c1C,inactive
12,CC1=C(C#N)C(=O)NC(=O)/C1=C\c1ccc(-c2cc(C)c(C)cc2[N+](=O)[O-])o1,active: 14.1 µM
13,NC1=NC(=O)/C(=C\c2ccco2)S1,active: 39.8 µM
14,C#CCNC(=O)C1=C[C@@H](c2ccccc2)C[C@@H](OCCCCO)O1,"inconclusive: 0.141 µM [inhibitor, full curve, poor fit]"
15,CC1CC(C)CN(S(=O)(=O)c2ccc(NC(=O)CN3C(=O)NC(C)(c4ccccc4)C3=O)cc2)C1 (configuration not stated),"inconclusive: 89.1 µM [inhibitor, single point]"
16,Cc1ccc2cc3c(NC(=O)c4ccco4)nn(C)c3nc2c1,"inconclusive: 25.1 µM [inhibitor, partial curve, poor fit]"
17,CCOC(=O)/C=c1\s/c(=C(\C#N)C(N)=O)n(-c2ccccc2)c1=O,"inconclusive: 28.2 µM [inhibitor, single point]"
18,CCCC(=O)Nc1c2c(nn1-c1cccc(Cl)c1)CS(=O)(=O)C2,"inconclusive: 79.4 µM [inhibitor, single point]"
19,Cc1cc(C(=O)OCC(=O)N2c3ccccc3CC2C)c(C)o1 (configuration not stated),"inconclusive: 56.2 µM [inhibitor, partial curve, poor fit]"
20,C#CCOCCOCCOCCNc1nc(N2CCN(C(=O)[C@H](Cc3cc4ccccc4[nH]3)n3cc(C(N)CC(C)C)nn3)CC2)nc(N2CCN(C(=O)[C@H](CCC(=O)O)n3cc(C(N)[C@H](C)CC)nn3)CC2)n1 (some centres not stated),"inconclusive: 70.8 µM [inhibitor, partial curve]"
21,COc1ccc(-c2nc(CNC(=O)Nc3ccccc3)c(C)o2)c(OC)c1,inactive
22,COc1ccccc1-c1coc2c(CN3CCC(C)CC3)c(O)ccc2c1=O,"inconclusive: 89.1 µM [inhibitor, single point]"
23,CCCn1nc(NC(=O)C2CCCO2)c2cc3cc(C)ccc3nc21 (configuration not stated),"inconclusive: 89.1 µM [inhibitor, single point]"

row,Compound,Potency
1,COc1ccc(N2C(=O)/C(=C/c3ccc([N+](=O)[O-])cc3)N=C2C)c(OC)c1,inactive
2,CCn1c(SCC(=O)Nc2oc(C)c3c(C)n[nH]c(=O)c23)nc2sc(C)c(C)c2c1=O,"inconclusive: 70.8 µM [inhibitor, partial curve]"
3,CC(=O)Cn1ncc(Br)c(Br)c1=O,"inconclusive: 39.8 µM [inhibitor, partial curve]"
4,N#Cc1ccc(N2CCN(c3ccc(F)cc3)CC2)cc1,inactive
5,C/C(CCC(=O)O)=N/Nc1ccc([N+](=O)[O-])cc1[N+](=O)[O-],"inconclusive: 79.4 µM [inhibitor, partial curve]"
6,O=C(NC(=S)Nc1ccc2ncccc2c1)c1ccccc1,"inconclusive: 17.8 µM [inhibitor, partial curve]"
7,CCCN(CCC)C(=O)CC(c1ccc(F)cc1)c1ccco1 (configuration not stated),active: 35.5 µM
8,CCOc1ccc(CNC(=O)Cn2c(=O)c3cccn3c3cccnc32)cc1,inactive
9,Cc1ccc(CCN2CC(C(=O)NCCCN3CCCCCC3)CC2=O)cc1 (configuration not stated),inactive
10,COc1ccc(NC(=O)c2oc3ccccc3c2NC(=O)c2ccco2)c(OC)c1,"inconclusive: 25.1 µM [inhibitor, single point]"
11,O=C(NNC(=O)C1CCCCC1)c1ccco1,inactive
12,CCC(=O)N1CCc2cc(Br)cc(S(=O)(=O)NCCN3CCCC3)c21,"inconclusive: 20 µM [inhibitor, partial curve, poor fit]"
13,O=[N+]([O-])C(=C1Nc2ccccc2N1)/C(Cl)=C(/Cl)Br,"inconclusive: 0.316 µM [inhibitor, full curve, poor fit]"
14,Cc1ccc2oc(-c3ccc(C)c(NC(=O)/C=C/c4ccco4)c3)nc2c1,active: 31.6 µM
15,Cc1nn(CCC(=O)NNC(=S)Nc2ccc([N+](=O)[O-])cc2)c(C)c1[N+](=O)[O-],"inconclusive: 4.47 µM [inhibitor, full curve]"
16,O=C(Cn1cnc2sc(-c3ccccc3)cc2c1=O)NCc1ccco1,"inconclusive: 31.6 µM [inhibitor, single point]"
17,COc1cccc(CN(C)C(=O)C2CC(=O)N(c3ccc4c(c3)OCCO4)C2)c1 (configuration not stated),inactive
18,N#Cc1ccccc1CSc1nnc(-c2ccc(Br)cc2)o1,inactive
19,O=C(c1ccco1)N1CCN(c2ncnc3c2oc2ccccc23)CC1,"inconclusive: 11.2 µM [inhibitor, partial curve, poor fit]"
20,O=[N+]([O-])c1c(NCc2ccco2)ncnc1NCc1ccco1,"inconclusive: 89.1 µM [inhibitor, single point]"
21,O=C(NCc1ccco1)C1CCN(S(=O)(=O)c2cccc3cccnc23)CC1,"inconclusive: 70.8 µM [inhibitor, partial curve]"
